# According to PubChem BioAssay AID1345083 (National Center for Advancing Translational Sciences (NCATS), 2018):
# Several values for one entry are separate records, joined by “and”; a condition that tells them apart may be missing. Identical values can stand only once. The campaign covered roughly 94,000 compounds. About 6,200 (6.6%) were called active. This list was built around the results that the source calls inconclusive (neither active nor inactive); the mix of calls is not that of the screen. The call rests on the fitted dose curve; in most records, active means well fitted inhibition curve with a large enough effect; inconclusive means small, poorly fitted or top-dose-only effect; inactive means flat fitted curve, though single readings scatter. Where the call is inconclusive, the potency comes from a doubtful curve fit.
# Experiment: Cytotoxic Profiling in HEK 293 Cell Line of Diverse Libraries Using Quantitative High-Throughput Screening; further: nearly all actives have a fitted effect of over 60% in size
# Conditions: HEK 293 viability, ATP luminescence (CellTiter-Glo), 48-72 h; activity change, negative = cytotoxicity: at 115 µM (top of the series) unless noted; series mostly up to 115 µM
# Procedure, shortened: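 Luminescence from cellular ATP, measured with CellTiter-Glo, indicates HEK 293 viability. Cells plated at 250 cells/well are treated with compound for 48 or 72 hr at 37 degree Celsius before reagent addition.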
# On the % scale 0 is the no-effect control and ±100 the full control effect; potency means the concentration at half of the fitted maximal effect; tags describe the fitted curve by direction and shape.
SMILES,Potency,"activity change, negative = cytotoxicity",outcome
CC(=O)Oc1c(-c2ccc(NC(=O)c3ccco3)cc2)c(-c2cccc(C)c2)nn1-c1ccc(F)cc1,"inconclusive: 89.1 µM [inhibitor, partial curve, poor fit]",,
CCOC(=O)c1cccc(NC(=O)c2ccc3c(c2)N(C)C2CCCCN2C3=O)c1 (stereo not drawn),active: 35.5 µM,,
O[C@H]1CC[C@@H](Cc2cc(COc3ccccc3)on2)O[C@@H]1CN(CC1CC1)CC1CC1,"inconclusive: 89.1 µM [inhibitor, partial curve, poor fit]",,
O=C(Cn1nc2c(cc1=O)CCCCC2)NC1CCCC1,,inactive: 0.991%,
O=C(NC1CCN(c2ccc3nnc(C4CC4)n3n2)CC1)c1ccccc1,,inactive: -3.39%,
CS(=O)(=O)N1CCC2(CC1)NCCc1c2[nH]c2ccccc12,"inconclusive: 89.1 µM [inhibitor, single point]",,
Cc1cccc(NC(=O)c2ccc3c(c2)N(C)C2CCCCCN2C3=O)c1 (stereo not drawn),"inconclusive: 89.1 µM [inhibitor, partial curve, poor fit]",,
c1ccc(Oc2ccc(Nc3cnc4ccc(N5CCOCC5)nn34)cc2)cc1,"inconclusive: 70.8 µM [inhibitor, partial curve, poor fit]",,
O=C(NC1CC1)[C@@H]1C[C@H](Oc2cccnc2)CN1S(=O)(=O)c1cccc(F)c1,,,inactive
CC1(c2ccccc2)N(Cc2ccccc2F)C(=O)OC12CCN(Cc1cccnc1)CC2 (stereo not drawn),"inconclusive: 79.4 µM [inhibitor, partial curve, poor fit]",,
COCC1CN(C2CCC2)CC12CCN(C(=O)c1nccn1C)CC2 (stereo not drawn),"inconclusive: 100 µM [inhibitor, single point]",,
CCCS(=O)(=O)N1CCC(Oc2ccc(-c3noc(CC)n3)cc2)C1 (stereo not drawn),"inconclusive: 44.7 µM [inhibitor, partial curve, poor fit]",,
O=C(c1ccc(C(F)(F)F)cc1)N1CCCN(c2ccnc3ccnn23)CC1,active: 22.4 µM,,
CN(Cc1cccnc1)C(=O)CCC1CCN(C(=O)c2ccccc2)CC1,"inconclusive: 89.1 µM [inhibitor, single point]",,
CCCC1(C(=O)O)CCCN(C(=O)c2cccnc2OCC)C1 (stereo not drawn),,,inactive
Cc1cccc(NC(=O)c2cc3n(n2)CC(c2ccc(Cl)cc2)OC3)c1 (stereo not drawn),"inconclusive: 79.4 µM [inhibitor, partial curve]",,
COc1ccc(CCC(=O)N2CCOc3ccc(N4CCCC4)cc3C2)cc1,"inconclusive: 50.1 µM [inhibitor, partial curve, poor fit]",,
COCCCNC(=O)CCN(CCCOC)C(=O)c1cc(C)oc1C,,inactive: -11.1%,
Fc1ccc(-c2nnc3ccc(N4CCN(Cc5ccccc5)CC4)nn23)nc1,"inconclusive: 126 µM [inhibitor, partial curve, poor fit]",,
Cc1noc(-c2ccc(OC3CN(C(=O)C(C)c4ccccc4)C3)cc2)n1 (stereo not drawn),"inconclusive: 50.1 µM [inhibitor, partial curve, poor fit]",,
COCCN1CCCCCC(O)c2cc(C(=O)N3CCN(c4ccc(OC)cc4)CC3)ccc21 (stereo not drawn),"inconclusive: 89.1 µM [inhibitor, single point]",,

SMILES,Potency,"activity change, negative = cytotoxicity",outcome
O=C(CCC[C@@H]1[C@H]2CCCN3CCC[C@@H](CN1C(=O)c1ccccc1F)[C@@H]23)N1CCOCC1,,inactive: 4.73%,
CN(C)c1ccc(C(=O)N[C@H]2CO[C@H]3[C@@H]2OC[C@@H]3n2cc(COc3ccccc3)nn2)cc1,"inconclusive: 50.1 µM [inhibitor, partial curve, poor fit]",,
CN1CCC2(C1)CN(Cc1ccccc1)c1ccc(C(=O)NC3CCC(O)CC3)cc12 (stereo not drawn),"inconclusive: 112 µM [inhibitor, single point]",,
Cc1cccc2c1nc1n2[C@@H](CNCc2ccc(C#N)cc2)COC1,"inconclusive: 56.2 µM [inhibitor, partial curve, poor fit]",,
COc1cc(OC)cc(-c2onc(C)c2C(=O)NCCc2ccc(F)cc2)c1,"inconclusive: 100 µM [inhibitor, single point]",,
Cc1nnc(-c2cc(-c3ccc(N4CCOCC4)cc3)ccn2)n1Cc1ccccc1,"inconclusive: 35.5 µM [inhibitor, partial curve, poor fit]",,
COc1ccccc1N1CCN(C(=O)CC[C@]23CC[C@](C)(O)C[C@H]2C(C)(C)C[C@@H]3NC(=O)c2ccc(C(F)(F)F)cc2)CC1,"inconclusive: 22.4 µM [inhibitor, full curve]",,
CC(=O)c1ccc(NC(=O)Cn2c(-c3ccc(Cl)cc3)nc(C)cc2=O)cc1,active: 44.7 µM,,
CCCN(CC1CC1)C(=O)C1CCC(=O)N(Cc2ccc(Cl)cc2)C1 (stereo not drawn),"inconclusive: 44.7 µM [inhibitor, partial curve, poor fit]",,
Cc1ccc(-c2nnc([C@H]3CCN(C(=O)C4CC4)C3)o2)cc1,,inactive: 4.2% [at 172 µM],
COC[C@H]1CCCN1[C@@H]1[C@H](O)[C@H](CO)O[C@@H]1CN(Cc1ccc(F)cc1)Cc1ccc(F)cc1,"inconclusive: 56.2 µM [inhibitor, partial curve, poor fit]",,
CCOC(=O)CCNC(=O)N1CCC2(CC1)C(=O)N(C(C)C)C2c1ccccc1 (stereo not drawn),,inactive: -21.2%,
O=c1cc(-c2cccnc2)oc2c(-c3ccccc3F)nccc12,"inconclusive: 100 µM [inhibitor, partial curve, poor fit]",,
COc1ccc(CCC(=O)Nc2ccc3c(N4CCOCC4)ncnc3c2)cc1,"inconclusive: 50.1 µM [inhibitor, partial curve, poor fit]",,
COc1ccc(Nc2ccnc(N3CCCC(C(=O)NCCc4ccc(F)cc4)C3)n2)cc1 (stereo not drawn),active: 31.6 µM,,
COc1ccc(CNC(=O)c2cnc3c(c2)N(C(=O)Cc2ccc(C(C)C)cc2)CCC3)cc1OC,"inconclusive: 50.1 µM [inhibitor, partial curve, poor fit]",,
Cc1nn(-c2ccccc2)c2c1C(C)N(C1CCCN(C(=O)Nc3ccc(Cl)cc3)C1)C2=O (stereo not drawn),"inconclusive: 39.8 µM [inhibitor, full curve, poor fit]",,
CN(C(=O)CN1C(=O)C(c2ccccc2)=NC12CCCC2)c1ccccc1,"inconclusive: 100 µM [inhibitor, single point]",,
O=C(N[C@H]1CCN2C(=O)c3cc(/C=C/c4ccc(O)cc4)ccc3NC(=O)[C@H]12)c1cnccn1,"inconclusive: 89.1 µM [inhibitor, single point]",,
O=C([C@@H]1C[C@H](F)CN1S(=O)(=O)Cc1ccccc1Cl)N1CCc2ccccc2C1,,inactive: -11%,
COc1cccc([S+](=O)([O-])N2CCC3(CC2)C(=O)NCN3Cc2ccc(Cl)cc2)c1,inactive,,

SMILES,Potency,"activity change, negative = cytotoxicity",outcome
CN(C)C(=O)c1nc2sccn2c1-c1ccncc1,,inactive: 3.92%,
CC(C)c1ccc(N2C(=O)N[C@@H]3CCN(C(=O)c4ccc(C(C)(C)C)cc4)[C@@H]3C2=O)cc1,active: 79.4 µM,,
CCc1nc(-c2ccc(OC3CCN(C(=O)C4CC4)C3)cc2)no1 (stereo not drawn),"inconclusive: 35.5 µM [inhibitor, full curve]",,
O=C(O)CC1(CC(=O)N2CCN3C(=O)N(Cc4ccccc4)C(=O)[C@H]3C2)CCCC1,,inactive: -14.9% [at 172 µM],
CCCc1noc(-c2ccn3c(CNC(=O)c4ccccc4F)nnc3c2)n1,,inactive: -6.62%,
CN(C(=O)[C@@H]1C[C@@H](c2ccc(F)cc2)N(CCOc2ccccc2)C1)c1cccnc1,"inconclusive: 70.8 µM [inhibitor, partial curve]",,
Cc1nc2c(c(N3CCC(O)(CN4CCCC4)CC3)n1)CCNCC2,,,inactive
COCc1ccc2c(c1)c(OC(C)(C)C(=O)N1CCN(CCO)CC1)nn2Cc1cccnc1,,,inactive
CCC1(CO)CCCN(Cc2[nH]cc(C)c(=O)c2C)C1 (stereo not drawn),,inactive: -7.79%,
COc1ccc(CNC(=O)CN2C(=O)NC(c3ccccc3Cl)C3=C2COC3=O)cc1 (stereo not drawn),"inconclusive: 89.1 µM [inhibitor, single point]",,
O=C1N(CCc2ccccc2)c2ccccc2C12CCN([S+](=O)([O-])c1cccs1)C2 (stereo not drawn),"inconclusive: 20 µM [inhibitor, full curve, poor fit] and inconclusive: 44.7 µM [inhibitor, partial curve, poor fit]",,
O=C(NCc1cccc(C(F)(F)F)c1)c1ccc2oc(-c3ccncc3)nc2c1,"inconclusive: 89.1 µM [inhibitor, single point]",,
COc1ccc(CC(=O)NC2CCN(c3nccc(Nc4ccccc4F)n3)CC2)cc1,"inconclusive: 56.2 µM [inhibitor, partial curve, poor fit]",,
O=C(C[C@H]1NC(=O)c2ccccc2NC1=O)Nc1nc(-c2cccnc2)cs1,active: 44.7 µM,,
O=C1CO[C@H]2CCN(Cc3cccs3)CC[C@@H]2N1c1ccccc1,"inconclusive: 100 µM [inhibitor, partial curve]",,
O=C(Cn1nc2c(cc1=O)CCCCC2)N1CCSCC1,,inactive: -22.7%,
CCC(C)NC(=O)C1CCCN1Cc1cccc(-c2ccc(C)c(Cl)c2)c1 (stereo not drawn),active: 22.4 µM,,
COC(=O)N1CCC2(CC1)CC(=O)N(c1ccccc1)c1ccccc1O2,,inactive: -24.9%,
COc1ccc(C(=O)Nc2ccc(-c3noc([C@@H]4CCCN4Cc4ccc(Cl)cc4)n3)cn2)cc1,"inconclusive: 22.4 µM [inhibitor, full curve]",,
O=C(Cc1c[nH]c2ncc(-c3ccoc3)cc12)N1CCOCC1,"inconclusive: 100 µM [inhibitor, partial curve]",,
CCOc1ccc(CC(=O)N2CCN(c3cc(-c4ccc(OC)cc4)[nH]n3)CC2)cc1,"inconclusive: 22.4 µM [inhibitor, partial curve, poor fit]",,
